In all, about 2,900 compounds were measured (“NF-kB SEAP reporter activity, fold change vs agonist alone”: median about 0.99, highest 2% from about 2.6 on). Some of the results follow.
Legend:
RAW-Dual [1] = test: NF-kB SEAP reporter activity, fold change vs agonist alone; higher = enhanced NF-kB activity; conditions: library stock concentration (final ~1000-fold dilution): 10 mM
Outline: (§1)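 Cytotoxic wells were those whose IncuCyte confluency was below 70% of agonist controls in both mask sets. The cells were RAW-Dual macrophages at 50,000 cells/well in DMEM on 384-well plates, dosed with 50 nL of library stock by pin tool, stimulated with a PRR agonist 1 h later, and kept at 37 °C, 5% CO2 for 20 hours. IRF and NF-κB reporter activity, as fold change over agonist-alone wells, came from supernatant read by QuantiLuc luminescence and QuantiBlue absorbance, respectively.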

RAW-Dual [2] = test: NF-kB SEAP reporter activity, fold change vs agonist alone; cytotoxicity flag (confluency mask): not cytotoxic; higher = enhanced NF-kB activity
Outline: as §1

RAW-Dual [3] = test: NF-kB SEAP reporter activity, fold change vs agonist alone; cytotoxicity flag (confluency mask): cytotoxic (confluency <70% of control); higher = enhanced NF-kB activity
Outline: as §1

[4] = cytotoxicity flag (confluency mask): cytotoxic (confluency <70% of control), agonist: Imiquimod (TLR7) […]
[5] = cytotoxicity flag (confluency mask): cytotoxic (confluency <70% of control), agonist: MPLA (TLR4) […]
[6] = cytotoxicity flag (confluency mask): not cytotoxic, agonist: Imiquimod (TLR7) […]
[7] = cytotoxicity flag (confluency mask): not cytotoxic, agonist: MPLA (TLR4) […]
[8] = agonist: ODN 1826 (TLR9) 0.5 ug/mL
[9] = agonist: Pam2CSK4 (TLR2/6) 0.1 ug/mL
[10] = agonist: Pam3CSK4 (TLR2/1) 0.1 ug/mL

Structure (SMILES): CCOC(=O)C1=C(N)Oc2ccc(Cl)cc2C1C(C#N)C(=O)OCC (stereo not drawn)
- NF-kB SEAP reporter activity (RAW-Dual [1]; [4]): 0.749
- NF-kB SEAP reporter activity (RAW-Dual [1]; [5]): 1.47

Structure (SMILES): Cc1nc(C(=O)NCC(=O)O)c(O)c2ccc(Oc3ccccc3)cc12
- NF-kB SEAP reporter activity (RAW-Dual [1]; [6]): 0.822
- NF-kB SEAP reporter activity (RAW-Dual [1]; [7]): 0.651

Structure (SMILES): Cc1nc(C(=O)NCC(=O)O)c(O)c2ccc(Oc3ccccc3)cc12 (library stock concentration (final ~1000-fold dilution): 10 mM)
- NF-kB SEAP reporter activity (RAW-Dual [2]; agonist: LPS (TLR4) 0.1 ug/mL): 0.514
- NF-kB SEAP reporter activity (RAW-Dual [2]; [8]): 0.69
- NF-kB SEAP reporter activity (RAW-Dual [2]; [9]): 0.307
- NF-kB SEAP reporter activity (RAW-Dual [2]; [10]): 0.384

Structure (SMILES): COc1nc2ccc(Br)cc2cc1C(c1ccccc1)C(O)(CCN(C)C)c1cccc2ccccc12 (stereo not drawn) (library stock concentration (final ~1000-fold dilution): 10 mM)
- NF-kB SEAP reporter activity (RAW-Dual [2]; agonist: LPS (TLR4) 0.1 ug/mL): 0.761
- NF-kB SEAP reporter activity (RAW-Dual [2]; [8]): 0.86
- NF-kB SEAP reporter activity (RAW-Dual [2]; [9]): 0.78
- NF-kB SEAP reporter activity (RAW-Dual [2]; [10]): 0.531

Structure (SMILES): COc1nc2ccc(Br)cc2cc1C(c1ccccc1)C(O)(CCN(C)C)c1cccc2ccccc12 (stereo not drawn)
- NF-kB SEAP reporter activity (RAW-Dual [1]; [6]): 0.771
- NF-kB SEAP reporter activity (RAW-Dual [1]; [7]): 0.783

Structure (SMILES): COc1cc2c(NC3CCN(C(C)C)CC3)nc(N3CCC(F)(F)CC3)nc2cc1OCCCN1CCCC1
- NF-kB SEAP reporter activity (RAW-Dual [1]; [4]): 0.781
- NF-kB SEAP reporter activity (RAW-Dual [1]; [5]): 1.92

Structure (SMILES): COc1cc2c(NC3CCN(C(C)C)CC3)nc(N3CCC(F)(F)CC3)nc2cc1OCCCN1CCCC1 (library stock concentration (final ~1000-fold dilution): 10 mM)
- NF-kB SEAP reporter activity (RAW-Dual [3]; agonist: LPS (TLR4) 0.1 ug/mL): 2.55
- NF-kB SEAP reporter activity (RAW-Dual [3]; [8]): 0.219
- NF-kB SEAP reporter activity (RAW-Dual [3]; [9]): 0.794
- NF-kB SEAP reporter activity (RAW-Dual [3]; [10]): 1.38

Structure (SMILES): COc1cc(NS(=O)(=O)c2ccc(N)cc2)ncn1
- NF-kB SEAP reporter activity (RAW-Dual [1]; [6]): 1.07
- NF-kB SEAP reporter activity (RAW-Dual [1]; [7]): 1.07

Structure (SMILES): COc1cc(NS(=O)(=O)c2ccc(N)cc2)ncn1 (library stock concentration (final ~1000-fold dilution): 10 mM)
- NF-kB SEAP reporter activity (RAW-Dual [2]; agonist: LPS (TLR4) 0.1 ug/mL): 0.983
- NF-kB SEAP reporter activity (RAW-Dual [2]; [8]): 0.98
- NF-kB SEAP reporter activity (RAW-Dual [2]; [9]): 0.943
- NF-kB SEAP reporter activity (RAW-Dual [2]; [10]): 1.11

Structure (SMILES): CC1(F)C(O)C(CO)OC1n1ccc(=O)[nH]c1=O (stereo not drawn)
- NF-kB SEAP reporter activity (RAW-Dual [1]; [7]): 1.02

Structure (SMILES): CC1(F)C(O)C(CO)OC1n1ccc(=O)[nH]c1=O (stereo not drawn) (library stock concentration (final ~1000-fold dilution): 10 mM)
- NF-kB SEAP reporter activity (RAW-Dual [2]; agonist: LPS (TLR4) 0.1 ug/mL): 1.26
- NF-kB SEAP reporter activity (RAW-Dual [2]; [8]): 0.945
- NF-kB SEAP reporter activity (RAW-Dual [2]; [9]): 0.82
- NF-kB SEAP reporter activity (RAW-Dual [2]; [10]): 0.78

Structure (SMILES): CN1CCN2c3ncccc3Cc3ccccc3C2C1 (stereo not drawn) (library stock concentration (final ~1000-fold dilution): 10 mM)
- NF-kB SEAP reporter activity (RAW-Dual [2]; agonist: LPS (TLR4) 0.1 ug/mL): 1.26
- NF-kB SEAP reporter activity (RAW-Dual [2]; [8]): 1.18
- NF-kB SEAP reporter activity (RAW-Dual [2]; [9]): 1.12
- NF-kB SEAP reporter activity (RAW-Dual [2]; [10]): 1.11

Structure (SMILES): CN1CCN2c3ncccc3Cc3ccccc3C2C1 (stereo not drawn)
- NF-kB SEAP reporter activity (RAW-Dual [1]; [6]): 0.926
- NF-kB SEAP reporter activity (RAW-Dual [1]; [7]): 1.04

Structure (SMILES): CCOC(=O)C(CCc1ccccc1)NC1CSC(c2cccs2)CN(CC(=O)O)C1=O.Cl (stereo not drawn)
- NF-kB SEAP reporter activity (RAW-Dual [1]; [6]): 1.01
- NF-kB SEAP reporter activity (RAW-Dual [1]; [7]): 1.01

Structure (SMILES): CCOC(=O)C(CCc1ccccc1)NC1CSC(c2cccs2)CN(CC(=O)O)C1=O.Cl (stereo not drawn) (library stock concentration (final ~1000-fold dilution): 10 mM)
- NF-kB SEAP reporter activity (RAW-Dual [2]; agonist: LPS (TLR4) 0.1 ug/mL): 0.869
- NF-kB SEAP reporter activity (RAW-Dual [2]; [8]): 1.04
- NF-kB SEAP reporter activity (RAW-Dual [2]; [9]): 0.946
- NF-kB SEAP reporter activity (RAW-Dual [2]; [10]): 1.15

Structure (SMILES): CCn1c(=O)c2c(nc(/C=C/c3ccc(OC)c(OC)c3)n2C)n(CC)c1=O
- NF-kB SEAP reporter activity (RAW-Dual [1]; [6]): 1.1
- NF-kB SEAP reporter activity (RAW-Dual [1]; [7]): 1.09

Structure (SMILES): CCn1c(=O)c2c(nc(/C=C/c3ccc(OC)c(OC)c3)n2C)n(CC)c1=O (library stock concentration (final ~1000-fold dilution): 10 mM)
- NF-kB SEAP reporter activity (RAW-Dual [2]; agonist: LPS (TLR4) 0.1 ug/mL): 1.34
- NF-kB SEAP reporter activity (RAW-Dual [2]; [8]): 1.08
- NF-kB SEAP reporter activity (RAW-Dual [2]; [9]): 1.33
- NF-kB SEAP reporter activity (RAW-Dual [2]; [10]): 1.3

Structure (SMILES): CCS(=O)(=O)c1cccc(-c2cc(C(=O)NC3CCN(C)CC3)c(C)c3[nH]c4ncc(C)cc4c23)c1 (library stock concentration (final ~1000-fold dilution): 10 mM)
- NF-kB SEAP reporter activity (RAW-Dual [3]; agonist: LPS (TLR4) 0.1 ug/mL): 0.336
- NF-kB SEAP reporter activity (RAW-Dual [3]; [8]): 1.79
- NF-kB SEAP reporter activity (RAW-Dual [3]; [9]): 0.306
- NF-kB SEAP reporter activity (RAW-Dual [3]; [10]): 1.1

Structure (SMILES): CCS(=O)(=O)c1cccc(-c2cc(C(=O)NC3CCN(C)CC3)c(C)c3[nH]c4ncc(C)cc4c23)c1
- NF-kB SEAP reporter activity (RAW-Dual [1]; [4]): 1.08
- NF-kB SEAP reporter activity (RAW-Dual [1]; [5]): 0.643

Structure (SMILES): Fc1ccc(Cn2c(Cl)nc3ccccc32)cc1
- NF-kB SEAP reporter activity (RAW-Dual [1]; [7]): 1.44

Structure (SMILES): Fc1ccc(Cn2c(Cl)nc3ccccc32)cc1 (library stock concentration (final ~1000-fold dilution): 10 mM)
- NF-kB SEAP reporter activity (RAW-Dual [2]; agonist: LPS (TLR4) 0.1 ug/mL): 1.53
- NF-kB SEAP reporter activity (RAW-Dual [2]; [8]): 0.823
- NF-kB SEAP reporter activity (RAW-Dual [2]; [9]): 0.902
- NF-kB SEAP reporter activity (RAW-Dual [2]; [10]): 0.885

Structure (SMILES): C[C@H]1CC[C@@]2(OC1)O[C@H]1C[C@H]3[C@@H]4CC[C@@H]5C[C@@H](O)CC[C@]5(C)[C@H]4CC[C@]3(C)[C@H]1[C@@H]2C (library stock concentration (final ~1000-fold dilution): 10 mM)
- NF-kB SEAP reporter activity (RAW-Dual [2]; agonist: LPS (TLR4) 0.1 ug/mL): 1.33
- NF-kB SEAP reporter activity (RAW-Dual [2]; [8]): 0.993
- NF-kB SEAP reporter activity (RAW-Dual [2]; [9]): 1.12
- NF-kB SEAP reporter activity (RAW-Dual [2]; [10]): 1.02

Structure (SMILES): C[C@H]1CC[C@@]2(OC1)O[C@H]1C[C@H]3[C@@H]4CC[C@@H]5C[C@@H](O)CC[C@]5(C)[C@H]4CC[C@]3(C)[C@H]1[C@@H]2C
- NF-kB SEAP reporter activity (RAW-Dual [1]; [6]): 0.927
- NF-kB SEAP reporter activity (RAW-Dual [1]; [7]): 1.07

Structure (SMILES): CC(Cn1ccc(-c2ccc(C#N)c(Cl)c2)n1)NC(=O)c1cc(C(C)O)[nH]n1 (stereo not drawn)
- NF-kB SEAP reporter activity (RAW-Dual [1]; [6]): 0.922
- NF-kB SEAP reporter activity (RAW-Dual [1]; [7]): 1.02

Structure (SMILES): CC(Cn1ccc(-c2ccc(C#N)c(Cl)c2)n1)NC(=O)c1cc(C(C)O)[nH]n1 (stereo not drawn) (library stock concentration (final ~1000-fold dilution): 10 mM)
- NF-kB SEAP reporter activity (RAW-Dual [2]; agonist: LPS (TLR4) 0.1 ug/mL): 1.25
- NF-kB SEAP reporter activity (RAW-Dual [2]; [8]): 1.04
- NF-kB SEAP reporter activity (RAW-Dual [2]; [9]): 1
- NF-kB SEAP reporter activity (RAW-Dual [2]; [10]): 1.31

Structure (SMILES): NC(=O)C1CCCc2c1[nH]c1ccc(Cl)cc21 (stereo not drawn)
- NF-kB SEAP reporter activity (RAW-Dual [1]; [6]): 1.06
- NF-kB SEAP reporter activity (RAW-Dual [1]; [7]): 1.08

Structure (SMILES): NC(=O)C1CCCc2c1[nH]c1ccc(Cl)cc21 (stereo not drawn) (library stock concentration (final ~1000-fold dilution): 10 mM)
- NF-kB SEAP reporter activity (RAW-Dual [2]; agonist: LPS (TLR4) 0.1 ug/mL): 1.09
- NF-kB SEAP reporter activity (RAW-Dual [2]; [8]): 1.1
- NF-kB SEAP reporter activity (RAW-Dual [2]; [9]): 0.903
- NF-kB SEAP reporter activity (RAW-Dual [2]; [10]): 1.12
